Data as given in the supplement of paper PMC8728848.
This is one part of the list.

Columns and labels:
Experiment in all cases: glycan array binding signal (z-score within array); higher = stronger binding
Settings in all cases: glycan notation: IUPAC condensed, linker removed
[1] = target: Gal(b1-3)[Neu5Ac(a2-6)]GlcNAc(b1-6)Gal(b1-4)Glc
Procedure, shortened: (§1)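 Arrays were curated from the Consortium for Functional Glycomics database, 3228 in total, and kept only where the protein sequence was available. Binding is expressed as a within-array Z-score. This score was averaged across arrays of the same protein sequence at different concentrations or buffers and across linkers, and negative values can be read as non-binding.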

[2] = target: Gal(b1-3)[Neu5Ac(b2-6)]GalNAc
Procedure, shortened: as §1

[3] = target: Gal(b1-4)Gal
Procedure, shortened: as §1

[4] = target: Gal(b1-4)GalNAc(a1-3)[Fuc(a1-2)]Gal(b1-4)GlcNAc
Procedure, shortened: as §1

[5] = target: Gal(b1-4)GalNAc(b1-3)[Fuc(a1-2)]Gal(b1-4)GlcNAc
Procedure, shortened: as §1

[6] = target: Gal(b1-4)Glc
Procedure, shortened: as §1

[7] = target: Gal(b1-4)Glc6S
Procedure, shortened: as §1

[8] = target: Gal(b1-4)GlcNAc
Procedure, shortened: as §1

[9] = target: Gal(b1-4)GlcNAc(a1-6)Gal(b1-4)GlcNAc
Procedure, shortened: as §1

[10] = target: Gal(b1-4)GlcNAc(b1-2)Man
Procedure, shortened: as §1

[11] = target: Gal(b1-4)GlcNAc(b1-2)Man(a1-3)Man(b1-4)GlcNAc(b1-4)GlcNAc
Procedure, shortened: as §1

[12] = target: Gal(b1-4)GlcNAc(b1-2)Man(a1-3)[Gal(b1-4)GlcNAc(b1-2)Man(a1-6)]Man(b1-4)GlcNAc(b1-4)GlcNAc
Procedure, shortened: as §1

[13] = target: Gal(b1-4)GlcNAc(b1-2)Man(a1-3)[Gal(b1-4)GlcNAc(b1-2)Man(a1-6)]Man(b1-4)GlcNAc(b1-4)[Fuc(a1-6)]GlcNAc
Procedure, shortened: as §1

[14] = target: Gal(b1-4)GlcNAc(b1-2)Man(a1-3)[Gal(b1-4)GlcNAc(b1-2)Man(a1-6)][Gal(b1-4)GlcNAc(b1-4)]Man(b1-4)GlcNAc(b1-4)[Fuc(a1-6)]GlcNAc
Procedure, shortened: as §1

[15] = target: Gal(b1-4)GlcNAc(b1-2)Man(a1-3)[Gal(b1-4)GlcNAc(b1-2)Man(a1-6)][GlcNAc(b1-4)]Man(b1-4)GlcNAc(b1-4)[Fuc(a1-6)]GlcNAc
Procedure, shortened: as §1

[16] = target: Gal(b1-4)GlcNAc(b1-2)Man(a1-3)[GlcNAc(b1-2)Man(a1-6)]Man(b1-4)GlcNAc(b1-4)GlcNAc
Procedure, shortened: as §1

[17] = target: Gal(b1-4)GlcNAc(b1-2)Man(a1-3)[GlcNAc(b1-4)][Gal(b1-4)GlcNAc(b1-2)Man(a1-6)]Man(b1-4)GlcNAc(b1-4)GlcNAc
Procedure, shortened: as §1

[18] = target: Gal(b1-4)GlcNAc(b1-2)Man(a1-3)[Man(a1-6)]Man(b1-4)GlcNAc(b1-4)GlcNAc
Procedure, shortened: as §1

[19] = target: Gal(b1-4)GlcNAc(b1-2)Man(a1-6)Man(b1-4)GlcNAc(b1-4)GlcNAc
Procedure, shortened: as §1

[20] = target: Gal(b1-4)GlcNAc(b1-2)Man(a1-6)[GlcNAc(b1-2)Man(a1-3)]Man(b1-4)GlcNAc(b1-4)GlcNAc
Procedure, shortened: as §1

[21] = target: Gal(b1-4)GlcNAc(b1-2)Man(a1-6)[Man(a1-3)]Man(b1-4)GlcNAc(b1-4)GlcNAc
Procedure, shortened: as §1

[22] = target: Gal(b1-4)GlcNAc(b1-2)[Gal(b1-4)GlcNAc(b1-4)]Man(a1-3)[Gal(b1-4)GlcNAc(b1-2)Man(a1-6)]Man(b1-4)GlcNAc(b1-4)GlcNAc
Procedure, shortened: as §1

[23] = target: Gal(b1-4)GlcNAc(b1-2)[Gal(b1-4)GlcNAc(b1-4)]Man(a1-3)[Gal(b1-4)GlcNAc(b1-2)[Gal(b1-4)GlcNAc(b1-6)]Man(a1-6)]Man(b1-4)GlcNAc(b1-4)GlcNAc
Procedure, shortened: as §1

[24] = target: Gal(b1-4)GlcNAc(b1-2)[Gal(b1-4)GlcNAc(b1-4)]Man(a1-3)[GlcNAc(b1-4)][Gal(b1-4)GlcNAc(b1-2)Man(a1-6)]Man(b1-4)GlcNAc(b1-4)GlcNAc
Procedure, shortened: as §1

[25] = target: Gal(b1-4)GlcNAc(b1-2)[Gal(b1-4)GlcNAc(b1-4)]Man(a1-3)[GlcNAc(b1-4)][Gal(b1-4)GlcNAc(b1-2)[Gal(b1-4)GlcNAc(b1-6)]Man(a1-6)]Man(b1-4)GlcNAc(b1-4)GlcNAc
Procedure, shortened: as §1

[26] = target: Gal(b1-4)GlcNAc(b1-2)[Gal(b1-4)GlcNAc(b1-6)]Man(a1-6)[Gal(b1-4)GlcNAc(b1-2)Man(a1-3)]Man(b1-4)GlcNAc(b1-4)GlcNAc
Procedure, shortened: as §1

[27] = target: Gal(b1-4)GlcNAc(b1-2)[Gal(b1-4)GlcNAc(b1-6)]Man(a1-6)[Gal(b1-4)GlcNAc(b1-2)Man(a1-3)]Man(b1-4)GlcNAc(b1-4)[Fuc(a1-6)]GlcNAc
Procedure, shortened: as §1

[28] = target: Gal(b1-4)GlcNAc(b1-2)[Gal(b1-4)GlcNAc(b1-6)]Man(a1-6)[GlcNAc(b1-4)][Gal(b1-4)GlcNAc(b1-2)Man(a1-3)]Man(b1-4)GlcNAc(b1-4)GlcNAc
Procedure, shortened: as §1

[29] = target: Gal(b1-4)GlcNAc(b1-2)[Gal(b1-4)GlcNAc(b1-6)]Man(a1-6)[GlcNAc(b1-4)][Gal(b1-4)GlcNAc(b1-2)[Gal(b1-4)GlcNAc(b1-4)]Man(a1-3)]Man(b1-4)GlcNAc(b1-4)[Fuc(a1-6)]GlcNAc
Procedure, shortened: as §1

[30] = target: Gal(b1-4)GlcNAc(b1-3)Gal(b1-3)GalNAc
Procedure, shortened: as §1

[31] = target: Gal(b1-4)GlcNAc(b1-3)Gal(b1-3)GlcNAc
Procedure, shortened: as §1

[32] = target: Gal(b1-4)GlcNAc(b1-3)Gal(b1-4)Glc
Procedure, shortened: as §1

[33] = target: Gal(b1-4)GlcNAc(b1-3)Gal(b1-4)GlcNAc
Procedure, shortened: as §1

[34] = target: Gal(b1-4)GlcNAc(b1-3)Gal(b1-4)GlcNAc(b1-2)Man(a1-3)[Gal(b1-4)GlcNAc(b1-3)Gal(b1-4)GlcNAc(b1-2)Man(a1-6)]Man(b1-4)GlcNAc(b1-4)GlcNAc
Procedure, shortened: as §1

[35] = target: Gal(b1-4)GlcNAc(b1-3)Gal(b1-4)GlcNAc(b1-2)Man(a1-3)[Gal(b1-4)GlcNAc(b1-3)Gal(b1-4)GlcNAc(b1-2)Man(a1-6)]Man(b1-4)GlcNAc(b1-4)[Fuc(a1-6)]GlcNAc
Procedure, shortened: as §1

[36] = target: Gal(b1-4)GlcNAc(b1-3)Gal(b1-4)GlcNAc(b1-2)[Gal(b1-4)GlcNAc(b1-3)Gal(b1-4)GlcNAc(b1-6)]Man(a1-6)[Gal(b1-4)GlcNAc(b1-3)Gal(b1-4)GlcNAc(b1-2)Man(a1-3)]Man(b1-4)GlcNAc(b1-4)GlcNAc
Procedure, shortened: as §1

[37] = target: Gal(b1-4)GlcNAc(b1-3)Gal(b1-4)GlcNAc(b1-2)[Gal(b1-4)GlcNAc(b1-3)Gal(b1-4)GlcNAc(b1-6)]Man(a1-6)[Gal(b1-4)GlcNAc(b1-3)Gal(b1-4)GlcNAc(b1-2)Man(a1-3)]Man(b1-4)GlcNAc(b1-4)[Fuc(a1-6)]GlcNAc
Procedure, shortened: as §1

[38] = target: Gal(b1-4)GlcNAc(b1-3)Gal(b1-4)GlcNAc(b1-3)Gal(b1-4)GlcNAc
Procedure, shortened: as §1

[39] = target: Gal(b1-4)GlcNAc(b1-3)Gal(b1-4)GlcNAc(b1-3)Gal(b1-4)GlcNAc(b1-2)Man(a1-3)[Gal(b1-4)GlcNAc(b1-3)Gal(b1-4)GlcNAc(b1-3)Gal(b1-4)GlcNAc(b1-2)Man(a1-6)]Man(b1-4)GlcNAc(b1-4)GlcNAc
Procedure, shortened: as §1

[40] = target: Gal(b1-4)GlcNAc(b1-3)Gal(b1-4)GlcNAc(b1-3)Gal(b1-4)GlcNAc(b1-2)Man(a1-3)[Gal(b1-4)GlcNAc(b1-3)Gal(b1-4)GlcNAc(b1-3)Gal(b1-4)GlcNAc(b1-2)Man(a1-6)]Man(b1-4)GlcNAc(b1-4)[Fuc(a1-6)]GlcNAc
Procedure, shortened: as §1

[41] = target: Gal(b1-4)GlcNAc(b1-3)Gal(b1-4)GlcNAc(b1-3)Gal(b1-4)GlcNAc(b1-2)[Gal(b1-4)GlcNAc(b1-3)Gal(b1-4)GlcNAc(b1-3)Gal(b1-4)GlcNAc(b1-6)]Man(a1-6)[Gal(b1-4)GlcNAc(b1-3)Gal(b1-4)GlcNAc(b1-3)Gal(b1-4)GlcNAc(b1-2)Man(a1-3)]Man(b1-4)GlcNAc(b1-4)[Fuc(a1-6)]GlcNAc
Procedure, shortened: as §1

[42] = target: Gal(b1-4)GlcNAc(b1-3)Gal(b1-4)GlcNAc(b1-3)Gal(b1-4)GlcNAc(b1-3)Gal(b1-4)GlcNAc(b1-2)Man(a1-3)[Gal(b1-4)GlcNAc(b1-3)Gal(b1-4)GlcNAc(b1-3)Gal(b1-4)GlcNAc(b1-3)Gal(b1-4)GlcNAc(b1-2)Man(a1-6)]Man(b1-4)GlcNAc(b1-4)GlcNAc
Procedure, shortened: as §1

[43] = target: Gal(b1-4)GlcNAc(b1-3)Gal(b1-4)GlcNAc(b1-3)Gal(b1-4)GlcNAc(b1-3)Gal(b1-4)GlcNAc(b1-2)Man(a1-3)[Gal(b1-4)GlcNAc(b1-3)Gal(b1-4)GlcNAc(b1-3)Gal(b1-4)GlcNAc(b1-3)Gal(b1-4)GlcNAc(b1-2)Man(a1-6)]Man(b1-4)GlcNAc(b1-4)[Fuc(a1-6)]GlcNAc
Procedure, shortened: as §1

[44] = target: Gal(b1-4)GlcNAc(b1-3)Gal(b1-4)GlcNAc(b1-3)Gal(b1-4)GlcNAc(b1-3)Gal(b1-4)GlcNAc(b1-2)[Gal(b1-4)GlcNAc(b1-3)Gal(b1-4)GlcNAc(b1-3)Gal(b1-4)GlcNAc(b1-3)Gal(b1-4)GlcNAc(b1-6)]Man(a1-6)[Gal(b1-4)GlcNAc(b1-3)Gal(b1-4)GlcNAc(b1-3)Gal(b1-4)GlcNAc(b1-3)Gal(b1-4)GlcNAc(b1-2)Man(a1-3)]Man(b1-4)GlcNAc(b1-4)[Fuc(a1-6)]GlcNAc
Procedure, shortened: as §1

[45] = target: Gal(b1-4)GlcNAc(b1-3)Gal(b1-4)GlcNAc(b1-3)Gal(b1-4)GlcNAc(b1-3)Gal(b1-4)GlcNAc(b1-3)Gal(b1-4)GlcNAc(b1-2)Man(a1-3)[Gal(b1-4)GlcNAc(b1-3)Gal(b1-4)GlcNAc(b1-3)Gal(b1-4)GlcNAc(b1-3)Gal(b1-4)GlcNAc(b1-3)Gal(b1-4)GlcNAc(b1-2)Man(a1-6)]Man(b1-4)GlcNAc(b1-4)GlcNAc
Procedure, shortened: as §1

B1: SJA (Sophora japonica) (protein)
chain: FLGLFNSGGYSSSYQIVAVEFDTYINEWDPKTRHIGIDINSINSTKTVTWGWENGEVAIVLISYKAATETLTVSLTYPSSQTSYILSAAVDLKSILPEWVRIGF
glycan array binding signal (z-score) [1]: -0.205
glycan array binding signal (z-score) [2]: -0.147
glycan array binding signal (z-score) [3]: -0.317
glycan array binding signal (z-score) [4]: -0.196
glycan array binding signal (z-score) [5]: -0.187
glycan array binding signal (z-score) [6]: -0.068
glycan array binding signal (z-score) [7]: -0.076
glycan array binding signal (z-score) [8]: -0.222
glycan array binding signal (z-score) [9]: -0.173
glycan array binding signal (z-score) [10]: 0.008
glycan array binding signal (z-score) [11]: -0.157
glycan array binding signal (z-score) [12]: -0.156
glycan array binding signal (z-score) [13]: -0.363
glycan array binding signal (z-score) [14]: -0.343
glycan array binding signal (z-score) [15]: -0.337
glycan array binding signal (z-score) [16]: -0.116
glycan array binding signal (z-score) [17]: -0.093
glycan array binding signal (z-score) [18]: -0.201
glycan array binding signal (z-score) [19]: -0.334
glycan array binding signal (z-score) [20]: -0.21
glycan array binding signal (z-score) [21]: -0.043
glycan array binding signal (z-score) [22]: -0.12
glycan array binding signal (z-score) [23]: -0.162
glycan array binding signal (z-score) [24]: -0.313
glycan array binding signal (z-score) [25]: -0.099
glycan array binding signal (z-score) [26]: -0.381
glycan array binding signal (z-score) [27]: -0.172
glycan array binding signal (z-score) [28]: -0.161
glycan array binding signal (z-score) [29]: -0.039
glycan array binding signal (z-score) [30]: -0.293
glycan array binding signal (z-score) [31]: -0.192
glycan array binding signal (z-score) [32]: -0.14
glycan array binding signal (z-score) [33]: -0.148
glycan array binding signal (z-score) [34]: 1.95
glycan array binding signal (z-score) [35]: 0.728
glycan array binding signal (z-score) [36]: -0.225
glycan array binding signal (z-score) [37]: 1.17
glycan array binding signal (z-score) [38]: -0.123
glycan array binding signal (z-score) [39]: 2.39
glycan array binding signal (z-score) [40]: 1.03
glycan array binding signal (z-score) [41]: 2.16
glycan array binding signal (z-score) [42]: 1.27
glycan array binding signal (z-score) [43]: 1.91
glycan array binding signal (z-score) [44]: 1.36
glycan array binding signal (z-score) [45]: 1.84
